Results are given in words; binding and its absence hold for the method and conditions named. In cells and extracts the contact can be indirect. Some binding calls cover weakened binding; strength is not graded here. Where a sequence is shown, tags or fusion partners need not be part of it.
T1: PTP1^S7AS8A–GFP (Arabidopsis) (UniProt O82656)
T1 sequence: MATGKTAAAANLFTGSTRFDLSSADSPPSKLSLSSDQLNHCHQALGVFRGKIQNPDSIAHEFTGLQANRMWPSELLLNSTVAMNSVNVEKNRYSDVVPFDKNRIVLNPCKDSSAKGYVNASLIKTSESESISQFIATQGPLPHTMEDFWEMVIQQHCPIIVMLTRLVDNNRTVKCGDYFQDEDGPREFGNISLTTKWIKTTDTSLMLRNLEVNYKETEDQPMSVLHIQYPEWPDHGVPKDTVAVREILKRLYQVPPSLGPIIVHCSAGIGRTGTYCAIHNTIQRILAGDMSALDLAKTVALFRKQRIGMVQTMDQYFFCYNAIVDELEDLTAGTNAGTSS

By UniProt entry, the sequences of proteins in these tests, tags left out.
UniProt Q39026: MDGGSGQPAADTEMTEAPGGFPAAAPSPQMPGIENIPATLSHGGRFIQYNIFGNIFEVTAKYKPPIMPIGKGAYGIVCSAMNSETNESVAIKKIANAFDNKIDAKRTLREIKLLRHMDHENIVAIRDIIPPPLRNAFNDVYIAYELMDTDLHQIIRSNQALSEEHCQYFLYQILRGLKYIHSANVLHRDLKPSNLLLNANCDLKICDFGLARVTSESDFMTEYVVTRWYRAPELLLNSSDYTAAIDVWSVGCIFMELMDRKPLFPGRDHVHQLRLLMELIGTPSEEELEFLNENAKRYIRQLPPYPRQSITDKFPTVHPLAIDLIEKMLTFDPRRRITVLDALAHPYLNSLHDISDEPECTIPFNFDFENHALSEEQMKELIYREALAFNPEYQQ

T2: PTP1^S7DS8D–GFP (Arabidopsis) (UniProt O82656)
T2 sequence: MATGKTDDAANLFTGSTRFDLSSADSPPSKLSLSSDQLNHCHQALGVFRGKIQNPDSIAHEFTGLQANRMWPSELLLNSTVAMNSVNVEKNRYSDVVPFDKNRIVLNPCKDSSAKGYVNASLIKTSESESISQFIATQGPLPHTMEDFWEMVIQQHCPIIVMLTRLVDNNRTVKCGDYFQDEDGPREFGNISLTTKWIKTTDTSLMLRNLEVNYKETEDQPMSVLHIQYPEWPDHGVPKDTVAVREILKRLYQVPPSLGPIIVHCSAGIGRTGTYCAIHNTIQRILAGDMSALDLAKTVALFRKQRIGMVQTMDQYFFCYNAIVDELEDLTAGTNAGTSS

T3: PTP1–GFP (PROTEIN TYROSINE PHOSPHATASE 1, wild type) (Arabidopsis) (UniProt O82656)
T3 sequence: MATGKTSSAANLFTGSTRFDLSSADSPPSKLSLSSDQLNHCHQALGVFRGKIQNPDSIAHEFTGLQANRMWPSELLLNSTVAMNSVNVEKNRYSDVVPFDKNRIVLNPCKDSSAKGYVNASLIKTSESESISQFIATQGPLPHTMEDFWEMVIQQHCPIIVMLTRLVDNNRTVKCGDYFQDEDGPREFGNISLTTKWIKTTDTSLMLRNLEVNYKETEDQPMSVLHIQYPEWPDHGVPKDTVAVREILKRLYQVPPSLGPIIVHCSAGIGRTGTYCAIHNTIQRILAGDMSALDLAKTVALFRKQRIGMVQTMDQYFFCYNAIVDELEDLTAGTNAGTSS

T4: PTP1-cYFP (Arabidopsis) (UniProt O82656)
T4 sequence: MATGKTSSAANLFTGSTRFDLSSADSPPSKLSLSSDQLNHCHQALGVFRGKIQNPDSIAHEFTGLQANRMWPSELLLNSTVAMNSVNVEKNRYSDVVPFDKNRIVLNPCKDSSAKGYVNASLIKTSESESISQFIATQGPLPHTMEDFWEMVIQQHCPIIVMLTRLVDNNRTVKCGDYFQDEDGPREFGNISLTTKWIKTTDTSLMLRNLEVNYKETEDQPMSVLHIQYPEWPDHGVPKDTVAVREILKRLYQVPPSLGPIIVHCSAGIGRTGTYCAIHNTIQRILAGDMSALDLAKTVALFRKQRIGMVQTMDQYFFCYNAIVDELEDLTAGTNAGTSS


What was measured:
[1] = target: T1, PTP1^S7AS8A–GFP (Arabidopsis); test: co-IP; forms of PTP1 transiently expressed in ptp1 seedlings were immunoprecipitated from cellular extracts by an anti-GFP antibody; the precipitate examined by MPK6 and GFP immunoblotting; equal endogenous MPK6 input
[2] = target: T2, PTP1^S7DS8D–GFP (Arabidopsis); test: as above
[3] = target: T3, PTP1–GFP (PROTEIN TYROSINE PHOSPHATASE 1, wild type) (Arabidopsis); test: as above
PTP1-cYFP (Arabidopsis) = target: T4, PTP1-cYFP (Arabidopsis); test: split reporter; BiFC: nYFP and cYFP fusions co-transfected into Arabidopsis leaf protoplasts; confocal microscopy (Zeiss LSM510 META)
MPK6-cYFP (Arabidopsis) = MPK6-cYFP (Arabidopsis) (UniProt Q39026); test: as above

Row | Molecule | binding [1] | binding [2] | binding [3] | binding (PTP1-cYFP (Arabidopsis)) | binding (MPK6-cYFP (Arabidopsis))
1 | MPK6 (endogenous) (from UniProt Q39026 1-395) | binds | no binding | binds |  | 
2 | MPK6-nYFP (from UniProt Q39026 1-395) |  |  |  | binds | 
3 | SnRK1.1-nYFP (SNF1 RELATED PROTEIN KINASE 1.1) (protein, UniProt Q38997-2 1-512) MDGSGTGSRSGVESILPNYKLGRTLGIGSFGRVKIAEHALTGHKVAIKILNRRKIKNMEMEEKVRREIKILRLFMHPHIIRLYEVIETPTDIYLVMEYVNSGELFDYIVEKGRLQEDEARNFFQQIISGVEYCHRNMVVHRDLKPENLLLDSKCNVKIADFGLSNIMRDGHFLKTSCGSPNYAAPEVISGKLYAGPEVDVWSCGVILYALLCGTLPFDDENIPNLFKKIKGGIYTLPSHLSPGARDLIPRMLVVDPMKRVTIPEIRQHPWFQAHLPRYLAVPPPDTVQQAKKIDEEILQEVINMGFDRNHLIESLRNRTQNDGTVTYYLILDNRFRASSGYLGAEFQETMEGTPRMHPAESVASPVSHRLPGLMEYQGVGLRSQYPVERKWALGLQSRAHPREIMTEVLKALQDLNVCWKKIGHYNMKCRWVPNSSADGMLSNSMHDNNYFGDESSIIENEAAVKSPNVVKFEIQLYKTRDDKYLLDLQRVQGPQFLFLDLCAAFLAQLRVL |  |  |  | binds | binds
